Compound in one assay: CC[C@]1(O)C[C@@H]2CN(CCc3c([nH]c4ccccc34)[C@@](C(=O)OC)(c3cc4c(cc3OC)N(C)[C@H]3[C@@](O)(C(=O)OC)[C@H](OC(C)=O)[C@]5(CC)C=CCN6CC[C@]43[C@@H]65)C2)C1 [Vinblastine]
As to the kind of experiment: Viability of human cancer cell lines after 72 h of drug (GDSC screen). As to conditions: top dose 0.1 µM; top dose inferred. On the procedure:
(§1)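 Human cancer cell lines in 384-well plates, medium with 10% serum, drug for 72 h over a 256-fold dose range (nine 2-fold or five 4-fold steps up to the top dose). Adherent lines were fixed and stained with the nucleic acid dye Syto60, suspension lines read with resazurin; signal relative to control wells, capped at 0 and 100%. One two-parameter sigmoid per drug and line, fitted in a mixed model over all curves with the slope shared within a line.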

Compound in the next assay: CN(C)C/C=C/C(=O)Nc1cc2c(Nc3ccc(F)c(Cl)c3)ncnc2cc1O[C@H]1CCOC1 [Afatinib]
The description is as above. On the procedure:
as §1

The mark [1] stands for this setting: top dose 0.5 µM, screen: GDSC drug entry 1032.
Where [2] appears, read: top dose 10 µM, screen: GDSC drug entry 1377, top dose inferred.

By IC50 is meant the dose at which the fit gives 50% viability; a limit (>, <) means that the fit lies beyond the doses tested. AUC, from the same fit, is the share of area under the viability curve across the 256-fold dose range; values near 1 show little effect. The top dose, if marked as inferred, was derived from the fitted curves, not read from the paper. For part of these data: An entry number marks a drug with two screens in the source, which often give different values.

The source of these data is the supplement of paper PMC4967469.

Take BALL-1 (B-cell leukaemia, suspension): the results for the AUC with Vinblastine, in the assay with Afatinib (setting [1]) and with Afatinib (setting [2]) were 0.509, 0.996 and 0.992, respectively. The IC50 with Vinblastine was 0.00658 µM; with Afatinib (setting [1]), over 0.5 µM; in the assay with Afatinib (setting [2]), over 10 µM.

Take CL-34 (large intestine, adherent): the AUC with Vinblastine worked out at 0.813; in the assay with Afatinib (setting [1]) it was 0.986; with Afatinib (setting [2]) it was 0.985. In addition, the IC50 is 0.0609 µM with Vinblastine, over 0.5 µM with Afatinib (setting [1]) and over 10 µM with Afatinib (setting [2]).

For CL-40 (large intestine, adherent), the AUC turned out to be 0.903 with Vinblastine, 0.776 in the assay with Afatinib (setting [1]) and 0.817 with Afatinib (setting [2]). In addition, the IC50 with Vinblastine was over 0.1 µM; in the assay with Afatinib (setting [1]) it was 0.364 µM; with Afatinib (setting [2]) it was over 10 µM.

Regarding “CML-T1 (chronic myeloid leukaemia, suspension)”, the figures for the AUC with Vinblastine, with Afatinib (setting [1]) and with Afatinib (setting [2]) were 0.403, 0.983 and 0.951, respectively. Further, the IC50 with Vinblastine is 0.00357 µM; in the assay with Afatinib (setting [1]) it was over 0.5 µM; in the assay with Afatinib (setting [2]), over 10 µM.

As to CRO-AP2 (B-cell lymphoma, suspension), the AUC came out at 0.203 with Vinblastine, 0.959 with Afatinib (setting [1]) and 0.959 with Afatinib (setting [2]). Besides, the IC50 was 0.000971 µM with Vinblastine, over 0.5 µM in the assay with Afatinib (setting [1]) and over 10 µM with Afatinib (setting [2]).

On to DIFI (large intestine, adherent), for which the AUC with Vinblastine turned out to be 0.656; in the assay with Afatinib (setting [1]) it was 0.23; with Afatinib (setting [2]), 0.146. The IC50 in the assay with Vinblastine was found to be 0.0173 µM; in the assay with Afatinib (setting [1]), 0.00493 µM; with Afatinib (setting [2]) it was 0.0465 µM.

As for EW-22 (Ewing sarcoma, adherent), the AUC turned out to be 0.722 with Vinblastine, 0.986 in the assay with Afatinib (setting [1]) and 0.945 in the assay with Afatinib (setting [2]). In addition, the IC50 in the assay with Vinblastine was 0.0258 µM; with Afatinib (setting [1]) it was over 0.5 µM; with Afatinib (setting [2]) it was over 10 µM.

Take “HCC-366 (non-small cell lung carcinoma, adherent)”: the AUC with Vinblastine amounted to 0.728; with Afatinib (setting [1]), 0.987; with Afatinib (setting [2]), 0.981. Besides, the IC50 with Vinblastine is 0.0288 µM; in the assay with Afatinib (setting [1]) it was over 0.5 µM; with Afatinib (setting [2]), over 10 µM.

Turning to IGROV-1 (ovary, adherent), the AUC was found to be 0.786 with Vinblastine, 0.815 with Afatinib (setting [1]) and 0.832 with Afatinib (setting [2]). In addition, the IC50 with Vinblastine is 0.0674 µM; in the assay with Afatinib (setting [1]), 0.459 µM; with Afatinib (setting [2]) it was over 10 µM.

Turning to JEKO-1 (B-cell lymphoma, suspension), the AUC with Vinblastine was 0.312; with Afatinib (setting [1]), 0.976; with Afatinib (setting [2]), 0.981. In addition, the IC50 with Vinblastine is 0.0019 µM; with Afatinib (setting [1]), over 0.5 µM; in the assay with Afatinib (setting [2]) it was over 10 µM.

Take JHOS-4 (ovary, adherent): the AUC with Vinblastine was 0.701; with Afatinib (setting [1]), 0.857; in the assay with Afatinib (setting [2]), 0.713. In addition, the figures for the IC50 with Vinblastine, with Afatinib (setting [1]) and in the assay with Afatinib (setting [2]) were 0.03 µM, over 0.5 µM and 3.32 µM, respectively.

Consider “KARPAS-1106P (B-cell lymphoma, suspension)”, for which the AUC stood at 0.431 with Vinblastine, 0.988 with Afatinib (setting [1]) and 0.993 with Afatinib (setting [2]). For the same cell line, the IC50 was 0.00419 µM with Vinblastine, over 0.5 µM with Afatinib (setting [1]) and over 10 µM with Afatinib (setting [2]).

For the cell line KATOIII (stomach, semi-adherent), the results for the AUC with Vinblastine, with Afatinib (setting [1]) and with Afatinib (setting [2]) were 0.708, 0.99 and 0.981, respectively. Further, the IC50 with Vinblastine is 0.0228 µM; in the assay with Afatinib (setting [1]), over 0.5 µM; in the assay with Afatinib (setting [2]), over 10 µM.

Turning to “KNS-62 (lung squamous cell carcinoma, adherent)”, the AUC with Vinblastine was 0.529; with Afatinib (setting [1]) it was 0.948; with Afatinib (setting [2]) it was 0.821. For the same cell line, the IC50 with Vinblastine is 0.00774 µM; with Afatinib (setting [1]), over 0.5 µM; with Afatinib (setting [2]), 9.68 µM.

On to MEL-HO (melanoma, adherent), for which the AUC was determined as 0.581 with Vinblastine, 0.984 with Afatinib (setting [1]) and 0.983 with Afatinib (setting [2]). For the same cell line, the values for the IC50 in the assay with Vinblastine, in the assay with Afatinib (setting [1]) and with Afatinib (setting [2]) were 0.0104 µM, over 0.5 µM and over 10 µM, respectively.

As to “MHH-CALL-2 (B-cell leukaemia, suspension)”, the results for the AUC with Vinblastine, with Afatinib (setting [1]) and with Afatinib (setting [2]) were 0.66, 0.997 and 0.997, respectively. Also, the results for the IC50 with Vinblastine, in the assay with Afatinib (setting [1]) and with Afatinib (setting [2]) were 0.0153 µM, over 0.5 µM and over 10 µM, respectively.

Take MKN7 (stomach, adherent): the AUC with Vinblastine was determined as 0.794; in the assay with Afatinib (setting [1]), 0.867; with Afatinib (setting [2]), 0.874. Moreover, the half-inhibitory concentration (IC50) in the assay with Vinblastine was 0.0651 µM; with Afatinib (setting [1]) it was over 0.5 µM; in the assay with Afatinib (setting [2]), over 10 µM.

For “MOLM-16 (acute myeloid leukaemia, suspension)”, the values for the AUC with Vinblastine, with Afatinib (setting [1]) and in the assay with Afatinib (setting [2]) were 0.431, 0.897 and 0.925, respectively. Further, the IC50 with Vinblastine is 0.00416 µM; with Afatinib (setting [1]), 0.488 µM; in the assay with Afatinib (setting [2]) it was over 10 µM.

By IC50 is commonly meant the midpoint of a concentration-inhibition curve.
